Experimental data: PubChem BioAssay AID463173 (ICCB-Longwood Screening Facility, Harvard Medical School, 2010)
Out of some 52,000 compounds screened, about 1,700 (3.3%) were called active. Cut-off read from the data, not from the text of the source: active = survival mostly below about 52% (no sharp cut-off); inactive = mostly above about 56%. This is one part of the list.

test system: Wild type; experiment: growth inhibition of S. aureus wild type versus tarO mutant, primary screen, teichoic acid synthesis inhibitors, RN4220, OD600 (AID 463173); details: S. aureus RN4220 wild type/DeltatarO growth, OD600, 18 h, stronger effect = lower value, screened at 18.75 µg/mL (by protocol)

SMILES	survival
CCCCN(c1ccccc1)c1ncnc2c1cnn2-c1ccc(Cl)cc1	inactive: 85%
Cc1ccc(CN(Cc2ccco2)c2cnc(S(C)(=O)=O)nc2C(=O)Nc2ccc(Br)cc2)o1	inactive: 124%
Cc1ccc(-c2cn3cccc(C)c3n2)cc1NS(=O)(=O)c1ccccc1	inactive: 55%
Cc1ccccc1NC(=O)Cn1c(=O)n(Cc2ccc3c(c2)OCO3)c(=O)c2oc3ccccc3c21	inactive: 82%
Cc1cc(C)cc(C(=O)Nc2cc(C(F)(F)F)ccc2N2CCN(c3ccccc3)CC2)c1	inactive: 78%
COc1ccc(-c2ccc(C#N)c(SCc3ccccn3)n2)cc1	inactive: 105%
O=C(c1ccccc1)N1CCc2cc(CNS(=O)(=O)c3ccccc3Cl)ccc21	inactive: 70%
CCOc1cc(C(=O)OCc2cc(=O)n3c(C)csc3n2)cc(OCC)c1OCC	active: -3%
CC(=O)Nc1ccc(S(=O)(=O)NCC2CCC(C(=O)NCCCOC(C)C)CC2)cc1 (stereo not given)	inactive: 112%
Cc1ccc(-c2nn3c(C)nnc3c3ccccc23)cc1S(=O)(=O)NCCO	inactive: 68%
Cc1cccc(N(CC(=O)NC(C)c2ccccc2)S(=O)(=O)c2ccccc2)c1C (stereo not given)	inactive: 79%
CS(=O)(=O)c1ncc(N(Cc2ccccc2)Cc2ccco2)c(C(=O)Nc2cccc(C(F)(F)F)c2)n1	inactive: 77%
CC(C)Cn1c(=O)c2sccc2n2c(CCCC(=O)Nc3ccc(Cl)cc3)nnc12	inactive: 95%
Cc1cc(C)c(NC(=O)CSc2nc(=O)n(Cc3ccco3)c3c2CCC3)c(C)c1	inactive: 74%
O=C(NCCc1ccc(Cl)cc1)c1ccc2nc(Cc3ccccc3)oc2c1	inactive: 87%
COc1cccc(-c2nc(SCc3cc(=O)c4cc(Cl)ccc4[nH]3)n[nH]2)c1	inactive: 71%
COc1ccc2c(Sc3ccccc3)c(C(=O)NCCN(C)C)[nH]c2c1	inactive: 94%
Cc1cc2c(cc1S(=O)(=O)Nc1cccc(C(F)(F)F)c1)OCCN2C	inactive: 92%
CCOc1ccc(-c2nonc2NC(=O)c2ccccc2C)cc1	inactive: 125%
CCc1ccc(CN(Cc2ccco2)C(=O)c2cc(-c3ccc(Cl)cc3)on2)cc1	inactive: 89%
CC(C)(C)C1CCc2c(sc(NC(=O)c3ccccc3F)c2C(=O)N2CCCCC2)C1 (stereo not given)	active: -3%
Cc1ccc2c(c1)c(=O)c(S(=O)(=O)c1ccc(F)cc1)cn2CC(=O)Nc1ccc2c(c1)OCO2	inactive: 74%
CC(C)Oc1ccc(CNC(=O)Cc2ccc(NC(=O)N3CCSc4ncccc43)cc2)cc1	inactive: 73%

SMILES	survival
Cc1ccc(Cl)cc1NC(=O)NC1COc2ccccc2C1 (stereo not given)	inactive: 75%
O=C(Cc1ccc(Cl)cc1)Nc1ccc2oc(-c3ccccc3)nc2c1	inactive: 76%
CCN(CC)C(=O)c1sc2c(c1C)c(=O)n(-c1ccc(C)c(C)c1)c(=O)n2CC(=O)Nc1ccc(F)cc1	inactive: 101%
Cc1ccc(-n2ncc(C(=O)NCc3cccs3)c2C2CCN(C(=O)OC(C)(C)C)CC2)cc1C	inactive: 90%
CCC(Cn1nnc2ccccc2c1=O)NC(=O)Nc1cc(Cl)ccc1OC (stereo not given)	inactive: 77%
Cc1cccc(Cn2c(CNS(=O)(=O)c3ccc(Cl)s3)nc3cccnc32)c1	inactive: 101%
Cc1ccc2[nH]c(CSc3nnc(NC(=O)COc4ccccc4F)s3)cc(=O)c2c1	inactive: 76%
CCOc1ccc(-c2cc3c(=O)n(CC(=O)Nc4c(C)cccc4C)ccn3n2)cc1	inactive: 85%
CC(C)CN(CCNC(=O)c1cc(=O)[nH]c2ccc(S(=O)(=O)N3CCCCCC3)cc12)CC(C)C	inactive: 82%
Cn1c(=O)oc2cc(S(=O)(=O)NCCC(=O)Nc3ccc(F)c(Cl)c3)ccc21	inactive: 85%
Cc1ccc(C)c(OCCOCCn2c(-c3ccc(Br)cc3)nc3ccccc3c2=O)c1C	inactive: 67%
Cc1cc(SCCN2CCOCC2)nc2ccccc12	inactive: 113%
Cc1ccc(Cl)cc1NC(=O)/C(C#N)=C/c1c(C)n(Cc2ccccc2)c2ccccc12	inactive: 80%
Cc1cc2ncn(CCC(=O)Nc3ccccc3F)c2cc1C	inactive: 105%
CC1CCCCN1C(=O)CSc1nnc(-c2cccc(Cl)c2)o1 (stereo not given)	inactive: 81%
CC(=O)N1CCCc2cc(S(=O)(=O)N(C)CC(=O)Nc3ccc(F)c(Cl)c3)ccc21	inactive: 125%
Fc1ccc(-c2csc(-c3nc(-c4ccc(Br)s4)cs3)n2)cc1	inactive: 62%
C1CCC2(CC1)C1=C(CCCC1)Nc1nnnn12	inactive: 107%
CCOc1ccc(NC(=O)CCCN2C(=O)C(c3ccccc3)Oc3cccnc32)cc1 (stereo not given)	inactive: 88%
CCCCN(C)CCNC(=O)Cn1ncc2c3ccccc3n(CCC)c2c1=O	inactive: 120%
COc1ccc(C2(O)CCN(CC(=O)NC(C)C)CC2)cc1	inactive: 96%
Cc1ccc(NC(=O)c2ccc3nc(Cc4ccccc4)oc3c2)cc1F	inactive: 19%
CCN(CC)c1ccc2cc(-c3nnc(-c4cccc(Cl)c4)o3)c(=O)oc2c1	inactive: 73%

SMILES	survival
Cc1cccc(-c2noc(CN(C(=O)c3ccc(C)c(C)c3)C(C)C)n2)c1	active: 0%
Cc1ccc(NC(=O)c2ncn(-c3ccccc3)n2)c(Cl)c1	inactive: 89%
COc1ccc(C)cc1N(C)C(=O)c1sc2nc3n(c(=O)c2c1C)CCCCC3	inactive: 81%
Cc1csc2nc(-c3cccc(NC(=O)c4cccc(F)c4)c3)cn12	inactive: 136%
O=C(CN(C(=O)c1cc2c(s1)CCC2)C1CCCC1)NCc1cccs1	inactive: 101%
CCCCCn1c(=O)[nH]c2cc(C(=O)NCc3ccc(C)cc3)ccc2c1=O	inactive: 87%
OC(COc1ccc(Cl)cc1Cl)CN1CCCCC1 (stereo not given)	inactive: 102%
CCOc1ccc(CCNC(=O)C2=C(C)C(=O)OC23CCC(C)CC3)cc1OCC (stereo not given)	inactive: 76%
Cc1ccc(C(=O)c2oc3ccccc3c2NC(=O)c2nc(S(C)(=O)=O)ncc2Cl)cc1F	inactive: 83%
COc1cccc(NC(=O)CSc2nc(-c3ccccc3)nc3c2Cc2cc(Cl)ccc2O3)c1	inactive: 89%
CCOc1cc(C#N)c(NC(=O)c2ccc(OC)c(S(=O)(=O)N3CCCC3)c2)cc1OCC	inactive: 73%
O=S(=O)(c1ccccc1)c1nc(-c2ccc(F)cc2)oc1N1CCOCC1	inactive: 73%
CCOC(=O)c1cccc(NC(=O)CC(c2ccc(F)cc2)N2Cc3ccccc3C2=O)c1 (stereo not given)	inactive: 83%
CCN(Cc1ccccc1)C(=O)C1CCN(Cc2cc(Br)c(O)c(OC)c2)CC1	inactive: 102%
CCCOc1ccc(OC(=O)c2sc3ncn(Cc4cccc(F)c4)c(=O)c3c2C)cc1	inactive: 56%
O=C(c1nc(-c2ccc(Cl)cc2)n2c1CCCCC2)N1CCN(c2ccc(F)cc2)CC1	inactive: 70%
CCOC(=O)Cn1nnnc1CN(CCc1ccc(OC)c(OC)c1)Cc1cc2c(C)ccc(C)c2[nH]c1=O	inactive: 99%
Cc1nc2cc(-c3cccc(F)c3)nn2c(C)c1CCC(=O)N1CCN(c2ccc(F)cc2)CC1	inactive: 63%
CN(C(=O)c1cc2sccc2n1C)C1CCCCC1	inactive: 116%
O=C(Cn1nnc2sc3c(c2c1=O)CCCC3)Nc1ccc(F)c(Cl)c1	inactive: 33%
CCN1C(=O)c2ccccc2Sc2ccc(NC(=O)c3ccc(C)c(F)c3)cc21	inactive: 85%
COc1cccc(NC(CNS(=O)(=O)c2ccc(C)cc2)c2ccccc2)c1 (stereo not given)	inactive: 98%
CN(Cc1ccccc1)c1ncnc2c1nc1n2CCCC1	inactive: 65%

SMILES	survival
CC(=O)Nc1ccc(Nc2cc(C)nc3ccccc23)cc1	inactive: 111%
CCCS(=O)(=O)NCCc1csc2nc(-c3ccc(OC)cc3)nn12	inactive: 63%
COc1ccc(C2NC(=O)NC(C)=C2C(=O)Nc2cc(C)cc(C)c2)c(OC)c1 (stereo not given)	inactive: 71%
Cc1ccccc1CNC(=O)CCCn1nc(C)c2sc3ccccc3c2c1=O	inactive: 92%
CCc1c(C)nc2nncn2c1Nc1ccc(C)c(F)c1	inactive: 83%
Cc1ccc(CS(=O)(=O)Cc2ccc(C(=O)NCCc3ccc(Cl)cc3)o2)cc1	inactive: 91%
COc1cc(OC)cc(C(=O)Nc2ccc3nc(N4CCC(C)CC4)cc(C)c3c2)c1	inactive: 68%
COc1cccc(C(=O)Nc2nnc(S(=O)(=O)N3CCOCC3)s2)c1	inactive: 84%
CCCCOc1cccc(C(=O)Nc2cccc3ccc(C)nc23)c1	inactive: 75%
CCC12CN3CC(CC)(CN(C1)C3c1ccc(OCc3ccccc3)cc1)C2=O (stereo not given)	inactive: 92%
Cc1cc(C)c2c(=O)cc(C(=O)Nc3ccccc3Cl)oc2c1	inactive: 88%
Cc1ccc2c(CC(=O)Nc3cc(C(F)(F)F)ccc3Cl)coc2c1C	inactive: 95%
CCOC(=O)c1c(C)[nH]c(C)c1S(=O)(=O)N1CCC(C(=O)Nc2ccccn2)CC1	inactive: 57%
O=C(Nc1ccc2c(c1)oc1ccccc12)c1cccs1	inactive: 117%
Cc1ccc2oc(=O)n(CCNC(=O)Nc3ccccc3Cl)c2c1	inactive: 90%
COc1ccc2oc(=O)c(C(=O)N3CCC(C(N)=O)CC3)cc2c1	inactive: 103%
COc1ccc(C2CC(=O)Nc3c2c(=O)nc2c(C)cccn32)cc1 (stereo not given)	inactive: 78%
CCC(C)NC(=O)C1CCC(CNS(=O)(=O)c2cccc3nsnc23)CC1 (stereo not given)	inactive: 89%
CCS(=O)(=O)N1CC(=O)N(c2ccc(C)c(C)c2)C(C)(C(=O)NC2CCCCC2)C1 (stereo not given)	inactive: 82%
O=C(Oc1ccc2ccccc2c1)N1CCOCC1	inactive: 103%
O=c1oc2ccc(Br)cc2cc1-c1nc(-c2ccccc2)no1	inactive: 66%
